This is an account of results in the supplement of paper PMC4604168 (melanoma cell lines).

Among the test systems are A101D; A2058; A375.
Common to all, as to assay: cell count relative to DMSO control; melanoma cells; higher = more viable cells
Holding throughout (details): library dose: standard library concentration; 72 h

The list shows a part of the results. Single values are uncertain, as repeats are few or missing.
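Note: cells treated in 1,536-well plates, then fixed and DAPI-stained, with nuclei counted from automated high-throughput microscope images.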

Take `Cc1cn(-c2cc(NC(=O)c3ccc(C)c(Nc4nccc(-c5cccnc5)n4)c3)cc(C(F)(F)F)c2)cn1` [nilotinib] + Clc1ccc(Nc2nnc(Cc3ccncc3)c3ccccc23)cc1 [vatalanib] (first compound 1 µM, partner dose 10 µM): the values for the cell count in the test with A101D, in the test on A2058 and with A375 were 83.1%, 80.5% and 103%, respectively.
Taken in the same sequence, the figures for `Cn1c(=O)n(-c2ccc(C(C)(C)C#N)cc2)c2c3cc(-c4cnc5ccccc5c4)ccc3ncc21` + O=C(O)[C@@H]1[O][Sb](=[O])([O][Sb]2(=[O])[O][C@H]([C@H](O)CO)[C@H](O)[C@H](C(=O)O)[O]2)[O][C@H]([C@H](O)CO)[C@@H]1O [stibogluconate] (first compound 0.02 µM, partner dose 10 µM) were 81.4%, 67.4% and 87.8%.
In the case of `Cc1cn(-c2cc(NC(=O)c3ccc(C)c(Nc4nccc(-c5cccnc5)n4)c3)cc(C(F)(F)F)c2)cn1` [nilotinib] + Cn1c(Nc2ccc(C(F)(F)F)cc2)nc2cc(Oc3ccnc(-c4ncc(C(F)(F)F)[nH]4)c3)ccc21 [CHIR265] (first compound 1 µM, partner dose 0.4 µM), the figures for the cell count in the test with A101D, in the test on A2058 and with A375 were 55.4%, 61.9% and 104%, respectively.
The like results for `Cc1cc(Nc2cc(N3CCN(C)CC3)nc(/C=C/c3ccccc3)n2)n[nH]1` + NC1(c2ccc(-c3nc4ccn5c(=O)[nH]nc5c4cc3-c3ccccc3)cc2)CCC1 [MK2206] (first compound 0.2 µM, partner dose 2 µM) were, in that order, 68%, 69.9% and 98%.
The like results for `COc1ccc(C2=N[C@@H](c3ccc(Cl)cc3)[C@@H](c3ccc(Cl)cc3)N2C(=O)N2CCNC(=O)C2)c(OC(C)C)c1` [Nutlin-3] + CN1CCN(c2ccc3nc(-c4c(N)c5c(F)cccc5[nH]c4=O)[nH]c3c2)CC1 [Dovitinib] (first compound 0.5 µM, partner dose 0.5 µM) were, in that order, 56.1%, 45.4% and 74.9%.
In the case of `Cn1c(=O)n(-c2ccc(C(C)(C)C#N)cc2)c2c3cc(-c4cnc5ccccc5c4)ccc3ncc21` + C=C(c1ccc(C(=O)O)cc1)c1cc2c(cc1C)C(C)(C)CCC2(C)C [Bexarotene] (first compound 0.02 µM, partner dose 10 µM), the figures for the cell count with A101D, in the test with A2058 and with A375 were 69.5%, 81.7% and 85.1%, respectively.
Taken in the same sequence, the figures for `Cc1cn(-c2cc(NC(=O)c3ccc(C)c(Nc4nccc(-c5cccnc5)n4)c3)cc(C(F)(F)F)c2)cn1` [nilotinib] + CCCS(=O)(=O)Nc1ccc(F)c(C(=O)c2c[nH]c3ncc(Cl)cc23)c1F [PLX4720] (first compound 1 µM, partner dose 0.4 µM) were 79.6%, 121% and 120%.
The like results for `Cc1cn(-c2cc(NC(=O)c3ccc(C)c(Nc4nccc(-c5cccnc5)n4)c3)cc(C(F)(F)F)c2)cn1` [nilotinib] + Cn1cncc1[C@@](N)(c1ccc(Cl)cc1)c1ccc2c(c1)c(-c1cccc(Cl)c1)cc(=O)n2C [tipifarnib] (first compound 1 µM, partner dose 0.05 µM) were, in that order, 86.4%, 90.8% and 116%.
Taken in the same sequence, the figures for `COc1ccc(C2=N[C@@H](c3ccc(Cl)cc3)[C@@H](c3ccc(Cl)cc3)N2C(=O)N2CCNC(=O)C2)c(OC(C)C)c1` [Nutlin-3] + CCCCCCCCc1ccc(CCC(N)(CO)CO)cc1 [fingolimod] (first compound 0.5 µM, partner dose 10 µM) were 2.7%, 4.89% and 63.1%.
On to `Cc1cn(-c2cc(NC(=O)c3ccc(C)c(Nc4nccc(-c5cccnc5)n4)c3)cc(C(F)(F)F)c2)cn1` [nilotinib] + Nc1ncn([C@H]2C[C@H](O)[C@@H](CO)O2)c(=O)n1 [decitabine] (first compound 1 µM, partner dose 0.5 µM), for which the results for the cell count in the test with A101D, in the test on A2058 and with A375 were 88.1%, 86.9% and 128%, respectively.
Regarding `Cc1cn(-c2cc(NC(=O)c3ccc(C)c(Nc4nccc(-c5cccnc5)n4)c3)cc(C(F)(F)F)c2)cn1` [nilotinib] + CC1(C)NC(=O)N(c2ccc([N+](=O)[O-])c(C(F)(F)F)c2)C1=O [nilutamide] (first compound 1 µM, partner dose 5 µM), the values for the cell count in the test with A101D, with A2058 and with A375 were 94%, 83.8% and 132%, respectively.
The like results for `Cc1cn(-c2cc(NC(=O)c3ccc(C)c(Nc4nccc(-c5cccnc5)n4)c3)cc(C(F)(F)F)c2)cn1` [nilotinib] + Cc1cc(Nc2cc(N3CCN(C)CC3)nc(/C=C/c3ccccc3)n2)n[nH]1 [ENMD2076] (first compound 1 µM, partner dose 0.2 µM) were, in that order, 87.9%, 114% and 95%.
For the molecule `Cc1cc(Nc2cc(N3CCN(C)CC3)nc(/C=C/c3ccccc3)n2)n[nH]1` + NC(=O)Nc1cc(-c2cccc(F)c2)sc1C(=O)N[C@H]1CCCNC1 [AZD7762] (first compound 0.2 µM, partner dose 0.1 µM), the cell count with A101D was determined as 64.3%; in the test on A2058 it was 78%; in the test on A375, 67.8%.
With `Cc1cn(-c2cc(NC(=O)c3ccc(C)c(Nc4nccc(-c5cccnc5)n4)c3)cc(C(F)(F)F)c2)cn1` [nilotinib] + CN(NC(=O)CC(=O)NN(C)C(=S)c1ccccc1)C(=S)c1ccccc1 [STA4783] (first compound 1 µM, partner dose 0.03 µM), the figures for the cell count with A101D and with A375 were 68.4% and 143%, respectively.
For the molecule `Cc1cc(Nc2cc(N3CCN(C)CC3)nc(/C=C/c3ccccc3)n2)n[nH]1` + O=C(O)c1ccc2c(c1)nc(Nc1cccc(Cl)c1)c1ccncc12 [CX4945] (first compound 0.2 µM, partner dose 2 µM), the cell count was 69.7% with A101D, 76.8% in the test on A2058 and 82.8% in the test with A375.
`COc1ccc(C2=N[C@@H](c3ccc(Cl)cc3)[C@@H](c3ccc(Cl)cc3)N2C(=O)N2CCNC(=O)C2)c(OC(C)C)c1` [Nutlin-3] + CCCS(=O)(=O)Nc1ccc(F)c(C(=O)c2c[nH]c3ncc(Cl)cc23)c1F [PLX4720] (first compound 0.5 µM, partner dose 0.4 µM): the cell count came out at 72.8% in the test with A101D, 124% in the test on A2058 and 99% in the test on A375.
In the case of `Cc1cn(-c2cc(NC(=O)c3ccc(C)c(Nc4nccc(-c5cccnc5)n4)c3)cc(C(F)(F)F)c2)cn1` [nilotinib] + CN1CCN(c2ccc3nc(-c4c(N)c5c(F)cccc5[nH]c4=O)[nH]c3c2)CC1 [Dovitinib] (first compound 1 µM, partner dose 0.5 µM), the cell count came out at 68.1% in the test with A101D, 55.3% in the test with A2058 and 92.3% in the test with A375.
Taken in the same sequence, the figures for `Cn1c(=O)n(-c2ccc(C(C)(C)C#N)cc2)c2c3cc(-c4cnc5ccccc5c4)ccc3ncc21` + O=C(O)c1ccc(-c2c[nH]c3ncc(-c4ccccc4)cc23)cc1C1CCCC1 [GSK650394] (first compound 0.02 µM, partner dose 0.8 µM) were 69.7%, 48.8% and 78.8%.
Taken in the same sequence, the figures for `COc1ccc(C2=N[C@@H](c3ccc(Cl)cc3)[C@@H](c3ccc(Cl)cc3)N2C(=O)N2CCNC(=O)C2)c(OC(C)C)c1` [Nutlin-3] + CC1(C)NC(=O)N(c2ccc([N+](=O)[O-])c(C(F)(F)F)c2)C1=O [nilutamide] (first compound 0.5 µM, partner dose 5 µM) were 49.9%, 85.6% and 79.3%.
The like results for `Cc1cc(Nc2cc(N3CCN(C)CC3)nc(/C=C/c3ccccc3)n2)n[nH]1` + O=C(Nc1cccc(Cl)c1)Nc1ncc(CCNc2ncnc3ccsc23)s1 [SNS314] (first compound 0.2 µM, partner dose 0.004 µM) were, in that order, 68.5%, 72.3% and 89.1%.
Turning to `COc1ccc(C2=N[C@@H](c3ccc(Cl)cc3)[C@@H](c3ccc(Cl)cc3)N2C(=O)N2CCNC(=O)C2)c(OC(C)C)c1` [Nutlin-3] + Nc1nc(F)nc2c1ncn2[C@@H]1O[C@H](CO)[C@@H](O)[C@@H]1O [fludarabine] (first compound 0.5 µM, partner dose 1 µM), the cell count with A101D stood at 80.5%; in the test with A2058, 102%; in the test on A375 it was 38.9%.
On to `Cc1cn(-c2cc(NC(=O)c3ccc(C)c(Nc4nccc(-c5cccnc5)n4)c3)cc(C(F)(F)F)c2)cn1` [nilotinib] + COCC[n+]1c2c(n(Cc3cnccn3)c1C)C(=O)c1ccccc1C2=O [YM155] (first compound 1 µM, partner dose 0.002 µM), for which the cell count was determined as 59.4% with A101D, 22.8% in the test with A2058 and 56% in the test with A375.
With `Cc1cc(Nc2cc(N3CCN(C)CC3)nc(/C=C/c3ccccc3)n2)n[nH]1` + CO[C@@H]1[C@H](N(C)C(=O)c2ccccc2)C[C@H]2O[C@]1(C)n1c3ccccc3c3c4c(c5c6ccccc6n2c5c31)C(=O)NC4 [Midostaurin] (first compound 0.2 µM, partner dose 0.4 µM), the values for the cell count in the test on A101D, with A2058 and with A375 were 66.8%, 54.5% and 88%, respectively.
As to `Cc1cc(Nc2cc(N3CCN(C)CC3)nc(/C=C/c3ccccc3)n2)n[nH]1` + Nc1nc(F)nc2c1ncn2[C@@H]1O[C@H](CO)[C@@H](O)[C@@H]1O [fludarabine] (first compound 0.2 µM, partner dose 1 µM), the figures for the cell count in the test on A101D, in the test with A2058 and with A375 were 68%, 78.2% and 29.2%, respectively.
Taken in the same sequence, the figures for `Cc1cn(-c2cc(NC(=O)c3ccc(C)c(Nc4nccc(-c5cccnc5)n4)c3)cc(C(F)(F)F)c2)cn1` [nilotinib] + C[C@@H](N)c1ccc(C(=O)Nc2ccnc3[nH]ccc23)cc1 [RKI983] (first compound 1 µM, partner dose 2 µM) were 71%, 62.2% and 96.6%.
For the molecule `CC(C)C[C@H](NC(=O)[C@H](Cc1ccccc1)NC(=O)c1cnccn1)B(O)O` [Bortezomib] + CN(C)S(=O)(=O)c1ccc2c(c1)/C(=C/c1cc3c([nH]1)CCCC3)C(=O)N2 [SU6656] (first compound 0.005 µM, partner dose 2 µM), the figures for the cell count with A101D, in the test on A2058 and in the test on A375 were 8.05%, 9.48% and 108%, respectively.
Taken in the same sequence, the figures for `Cc1cn(-c2cc(NC(=O)c3ccc(C)c(Nc4nccc(-c5cccnc5)n4)c3)cc(C(F)(F)F)c2)cn1` [nilotinib] + NCC(=O)Nc1ccc(-n2nc(C(F)(F)F)cc2-c2ccc3c(ccc4ccccc43)c2)cc1 [OSU03012] (first compound 1 µM, partner dose 5 µM) were 82.2%, 70.5% and 48.1%.
